Test results reported in PubChem BioAssay AID485344 (National Center for Advancing Translational Sciences (NCATS), 2010).
Among all 340,000 compounds or so, about 6,900 (2%) were called active. Rule as the data show it: active = inhibition above about 30%; inactive = below that, where a call was filed. The list shows a part of the results, in another mix than the full data. The source gives no active or inactive call for entries shown without one.

Molecular target: D(2) dopamine receptor (Homo sapiens) (UniProt P14416)
UniProt P14416, sequence (P14416 whole entry, looked up): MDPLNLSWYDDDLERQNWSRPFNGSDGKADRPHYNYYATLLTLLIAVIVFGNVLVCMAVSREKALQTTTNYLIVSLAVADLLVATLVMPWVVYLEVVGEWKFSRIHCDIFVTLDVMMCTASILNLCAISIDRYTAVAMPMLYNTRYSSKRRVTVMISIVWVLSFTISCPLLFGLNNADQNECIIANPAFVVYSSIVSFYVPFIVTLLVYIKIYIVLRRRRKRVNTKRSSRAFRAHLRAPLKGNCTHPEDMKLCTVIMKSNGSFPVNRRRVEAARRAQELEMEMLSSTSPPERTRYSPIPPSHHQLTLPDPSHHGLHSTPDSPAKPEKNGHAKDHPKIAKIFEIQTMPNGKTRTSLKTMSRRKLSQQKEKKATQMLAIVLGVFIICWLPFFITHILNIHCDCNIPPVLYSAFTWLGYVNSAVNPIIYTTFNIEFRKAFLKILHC
Experiment: HTS Assay for Allosteric Antagonists of the Human D2 Dopamine Receptor: Primary Screen for Antagonists; also: 0% is about no effect
Details: HEK293 TREx D2 cells, calcium flux, dopamine EC80; at 10 µM; stronger effect = higher value
Procedure, shortened: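 Dopamine at EC80 is the agonist stimulus; test compounds precede it by 180 s. Calcium flux read kinetically in a force-coupled, inducible HEK293 T-REx D2 cell line.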

For `Cc1ccc(-n2c(=O)c3ccc(C(=O)NCc4ccccc4Cl)cc3n(Cc3ccccc3F)c2=O)cc1`, which inhibition is on record?
Its inhibition is -13.4%.

With `COc1cccc(NS(=O)(=O)c2ccc3[nH]cc(C(=O)N4CCCCCC4)c(=O)c3c2)c1` as the compound, how does the inhibition read?
Its inhibition is -6.93%.

`CCc1ccc(CN(Cc2cn[nH]c2-c2ccc(OC)cc2)C(=O)Nc2ccc(C)c(F)c2)cc1` was tested. Which inhibition did it give?
Its inhibition is -10.8%.

`CCOc1ccc(CNC(=O)c2cc3ccccn3n2)cc1OC` was tested. Which inhibition did it give?
The inhibition was -4.88%.

For `Cn1c(=O)c2c(-c3cccc(Br)c3)n(CCO)cc2n(C)c1=O`, which inhibition is on record?
The inhibition was 7.62%.

How did the inhibition turn out when `CCN1CCN(c2oc(/C=C/c3ccccc3OC)nc2C#N)CC1` was run?
Its inhibition is 14.3%.

Which inhibition does the source give for `O=c1c2cc3c(cc2nc2sc(Nc4ccc(F)c(Cl)c4)nn12)OCO3` here?
The inhibition was 17.6%.

Which inhibition does the source give for `COc1cc(OC)c(N(C)C(=O)Cn2ncc3c([nH]c4ccccc43)c2=O)cc1Cl` here?
The inhibition was -12.9%.

`CN(Cc1ccccc1)C(=O)C1CCN(S(=O)(=O)Cc2ccccc2)CC1` was tested. Which inhibition did it give?
Its inhibition is -18%.

With `COc1cc(/C=C(\C#N)c2nc3ccccc3n2C)cc(OC)c1OC` as the compound, how does the inhibition read?
Its inhibition is -6.06%.

How did the inhibition turn out when `Cc1ccc(NC(=O)c2cc(S(=O)(=O)N3CCCC(C)C3)cn2C)c(Br)c1` (stereo not given) was run?
Its inhibition is -17.9%.

With `Cc1ccc(CNC(=O)CCc2c(C)nn(-c3ccc(N4CCCCC4)nn3)c2C)cc1` as the compound, how does the inhibition read?
Its inhibition is 3.01%.

How did the inhibition turn out when `Cc1ccc(-c2nc3ccccn3c2Nc2ccc3c(c2)OCO3)cc1` was run?
The inhibition was -6.27%.

How did the inhibition turn out when `Cc1csc2nc(-c3cccc(NC(=O)c4ccccc4Cl)c3)cn12` was run?
Its inhibition is -14.7%.

For `CC(C)CN1CCN(Cc2ccc(C#CC(C)(C)O)cc2)CC1CCO` (stereo not given), which inhibition is on record?
Its inhibition is active: 33.3%.

For `Cc1ccc(S(=O)(=O)NCC(c2ccc(N(C)C)cc2)N2CCOCC2)cc1` (stereo not given), which inhibition is on record?
Its inhibition is 5.63%.

`O=C(NC1CCCCCC1)C1CCN(C(=O)N2CCOc3ccccc32)CC1` was tested. Which inhibition did it give?
Its inhibition is -21.8%.

For `Cc1cccc(OCC(=O)OCc2cc(=O)n3nc(C4CCCCC4)sc3n2)c1`, which inhibition is on record?
The inhibition was 0.131%.

For `COc1ccc(C(=O)COC(=O)c2cccc(NC(=O)c3ccc(OC)c(OC)c3)c2)cc1`, which inhibition is on record?
The inhibition was -11.6%.

Which inhibition does the source give for `CCOC(=O)C(CC)n1nc(C)n2c(cc3occc32)c1=O` (stereo not given) here?
The inhibition was -5.41%.

`Cc1ccc(-c2nnc(SCc3ccccc3C#N)o2)cc1` was tested. Which inhibition did it give?
The inhibition was -6.65%.

With `CCOc1cc(-c2nc3c(c(CC)nn3-c3ccccc3)c3cc(OC)c(OC)cc23)ccc1O` as the compound, how does the inhibition read?
The inhibition was -4.43%.

How did the inhibition turn out when `COc1cccc(-c2nc(CS(=O)(=O)CC(=O)NCc3ccc(C)cc3)c(C)o2)c1` was run?
The inhibition was -7.43%.

With `Cc1ccc(CN2C(=O)C(O)(c3c[nH]c4ccccc34)c3cc(Cl)ccc32)cc1` (stereo not given) as the compound, how does the inhibition read?
Its inhibition is -2.3%.

With `Cc1ccc2c(c1)NC(c1cccnc1)=NC(c1ccc(F)cc1)=N2` as the compound, how does the inhibition read?
The inhibition was 25.2%.

Which inhibition does the source give for `COc1ccc(OCC(O)CNCCOc2ccccc2OC)c(C(C)(C)C)c1` (stereo not given) here?
Its inhibition is active: 71.2%.

How did the inhibition turn out when `COCCNC(=O)c1c(C)oc2nc(C)nc(N3CCOCC3)c12` was run?
The inhibition was -1.78%.

Which inhibition does the source give for `CCOC(=O)c1c(NC(=O)c2ccccc2Cl)sc2c1CCCC2` here?
Its inhibition is 3.11%.

For `CCOC(=O)c1cccc(NC(=O)c2ccc3c(Cl)c4c(nc3c2)CCC4)c1`, which inhibition is on record?
The inhibition was 12.4%.

Which inhibition does the source give for `Cc1ccc(NC(=O)Cn2nnc(-c3nc(-c4ccncc4)no3)c2N)cc1` here?
Its inhibition is -1.96%.

How did the inhibition turn out when `CCOc1ccc2nc(C)cc(Nc3ccccc3OCC)c2c1` was run?
The inhibition was 19.3%.

How did the inhibition turn out when `CCCOc1ccc(CNC(=O)C(CC)n2nc(C)c3sc4ccccc4c3c2=O)cc1` (stereo not given) was run?
Its inhibition is -1.97%.

With `Cc1ccc(C(=O)O)cc1Nc1nc2ccccc2n2nnnc12` as the compound, how does the inhibition read?
Its inhibition is 0.847%.

Which inhibition does the source give for `Cc1ccc(Cl)cc1N1CCN(C(=O)CCC(=O)Nc2ccc3nc(N4CCC(C)CC4)cc(C)c3c2)CC1` here?
The inhibition was -6.2%.

`COc1ccccc1N1CCN(C2CCCN(C(=O)c3oc(C)cc3C)C2)CC1` (stereo not given) was tested. Which inhibition did it give?
Its inhibition is active: 46%.

`COc1ccc(C(CNC(=O)c2cc3c(s2)CCC(C)C3)N2CCCC2)cc1` (stereo not given) was tested. Which inhibition did it give?
The inhibition was active: 71.6%.

With `NNC(=O)CN1C(c2ccccc2)=Nc2ccc(Br)cc2C1c1ccccc1` (stereo not given) as the compound, how does the inhibition read?
Its inhibition is active: 81.5%.

`CCOC(=O)c1noc2ncnc(Nc3ccc(F)cc3F)c12` was tested. Which inhibition did it give?
Its inhibition is 6.15%.

How did the inhibition turn out when `Cc1cccc(C)c1NC(=O)Cn1c(=O)n(CC2CCC(C(=O)NCCc3ccccc3)CC2)c(=O)c2ccccc21` (stereo not given) was run?
The inhibition was 26.3%.

With `CCOC(=O)C1CCN(C(=O)C2CCN(C3=NS(=O)(=O)C(c4ccc(C)cc4)=C3CC)CC2)CC1` as the compound, how does the inhibition read?
Its inhibition is -18.9%.

For `O=[N+]([O-])c1cc(-c2nc(-c3ccccc3)no2)ccc1N1CCN(c2ccccc2)CC1`, which inhibition is on record?
Its inhibition is 6.14%.

With `Cc1ccc(CNC(=O)C2CCN(c3nc4ccccc4n(C)c3=O)CC2)cc1` as the compound, how does the inhibition read?
The inhibition was 23.6%.

Which inhibition does the source give for `CCOC(=O)CSc1nc2c(sc3ccccc32)c(=O)n1CCc1ccccc1` here?
The inhibition was -7.7%.

`O=C(Nc1ccccc1C(F)(F)F)c1cc2ccccc2o1` was tested. Which inhibition did it give?
The inhibition was active: 47.4%.

Which inhibition does the source give for `COc1ccc(-c2ccc3c(N)c(C(=O)NCc4ccc(Cl)cc4)sc3n2)cc1` here?
The inhibition was -4.39%.

How did the inhibition turn out when `COC(=O)c1c(SC)nc2ccccc2c1OCc1ccccc1C` was run?
Its inhibition is -5.76%.

Which inhibition does the source give for `O=[N+]([O-])c1ccc(N/N=C/c2ccccc2O)cc1` here?
The inhibition was active: 35.8%.

With `CCc1ccc(NC(=O)C2CCN(S(=O)(=O)c3ccc4[nH]c5c(c4c3)CCCCC5)CC2)cc1` as the compound, how does the inhibition read?
The inhibition was 1.79%.

For `O=C(CCn1c(=O)c2ccccc2n(Cc2ccc(F)cc2Cl)c1=O)NCc1ccc2c(c1)OCO2`, which inhibition is on record?
Its inhibition is -7.61%.

For `CCn1cc(C(=O)N2CCN(c3ccccc3F)CC2)c(=O)c2cc(S(=O)(=O)N(C)C3CCCCC3)ccc21`, which inhibition is on record?
Its inhibition is -11.5%.
